Assay results published in PubChem BioAssay AID887 (National Center for Advancing Translational Sciences (NCATS), 2007).
The whole screen tested about 74,000 compounds, of which about 1,100 (1.5%) were called active. Inconclusive means that the source gave no clear call. Such entries were picked first, then a sample of the others. The call rests on the fitted dose curve; in most records, active means well fitted inhibition curve with a large enough effect; inconclusive means small, poorly fitted or top-dose-only effect; inactive means no such curve, though single readings can be large or run the other way. Potencies of inconclusive entries are left out as doubtful fits.

molecular target: Polyunsaturated fatty acid lipoxygenase ALOX15 (Homo sapiens) (UniProt P16050); test: qHTS Assay for Inhibitors of 15-hLO (15-human lipoxygenase); conditions: purified 15hLO-1, xylenol orange hydroperoxide absorbance; activity change, negative = inhibition: at 57.1 µM (top of the series) unless noted; further: nearly all actives have a fitted effect of over 55% in size
How it was run: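 40 nM 15hLO-1 + cpd, 15 min RT; start w/ 50 uM AA (final), 6 min RT; stop/detect w/ 200 uM XO + 300 uM Fe(II) in 50 mM H2SO4, 30 min; A573/A405. Buffer 25 mM Hepes pH 7.5, 0.01% Triton X-100. No-enzyme wells as negative control.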
On the % scale 0 is the no-effect control and ±100 the full control effect; potency means the concentration at half of the fitted maximal effect; tags describe the fitted curve by direction and shape.

Chain of UniProt P16050 (P16050 whole entry, looked up): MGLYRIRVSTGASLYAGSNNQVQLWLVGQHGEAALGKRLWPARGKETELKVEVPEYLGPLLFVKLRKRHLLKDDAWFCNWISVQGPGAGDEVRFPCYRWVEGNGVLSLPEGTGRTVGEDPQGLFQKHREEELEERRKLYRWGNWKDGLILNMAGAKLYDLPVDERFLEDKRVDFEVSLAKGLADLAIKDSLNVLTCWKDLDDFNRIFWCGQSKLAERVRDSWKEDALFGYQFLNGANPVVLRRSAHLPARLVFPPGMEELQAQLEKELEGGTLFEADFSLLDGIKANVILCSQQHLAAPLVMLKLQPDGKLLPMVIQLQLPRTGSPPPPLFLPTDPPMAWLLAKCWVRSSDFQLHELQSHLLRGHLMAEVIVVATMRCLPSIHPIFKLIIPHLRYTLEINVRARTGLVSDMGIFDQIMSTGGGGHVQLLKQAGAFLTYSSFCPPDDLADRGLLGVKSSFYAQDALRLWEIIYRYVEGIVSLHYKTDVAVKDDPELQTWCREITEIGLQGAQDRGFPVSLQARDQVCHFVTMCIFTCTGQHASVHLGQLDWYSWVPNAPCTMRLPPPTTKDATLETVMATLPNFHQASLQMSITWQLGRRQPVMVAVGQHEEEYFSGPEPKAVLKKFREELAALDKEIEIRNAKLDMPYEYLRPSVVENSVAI

SMILES	Potency	activity change, negative = inhibition
Cc1cccc2sc(NC(=O)CNS(=O)(=O)c3ccc(Br)s3)nc12	inactive	–
COc1ccc(Cl)cc1NC(=O)CSc1nc(N2CCCCC2)nc(N2CCCCC2)n1	inactive	–
Cc1cc(C)c2cc(CN(Cc3ccc4c(c3)OCO4)Cc3nnnn3Cc3ccco3)c(=O)[nH]c2c1	active: 10 µM	–
O=C1c2ccccc2C(Cc2ccnc(F)c2)(Cc2ccnc(F)c2)c2ccccc21	inconclusive [inhibitor, single point]	–
CCOc1cccc(NC(=O)C2CC(=O)N(C)C(=Nc3ccccc3)S2)c1 (configuration not stated)	inconclusive [inhibitor, single point]	–
O=C(NO)c1ccccc1	inconclusive [inhibitor, single point]	–
COC(=O)c1ccc(N2C(=O)CC(Sc3n[nH]c(C)n3)C2=O)cc1 (configuration not stated)	inconclusive [inhibitor, full curve, poor fit]	–
Cc1cc(C)c2nc(N3CCCN(C(=O)c4ccco4)CC3)c(C#N)cc2c1	inconclusive [inhibitor, partial curve]	–
Cc1ccc2c(c1)NC(=O)C(CC(=O)N(C)Cc1ccccc1)O2 (configuration not stated)	inconclusive [inhibitor, single point]	–
Cc1cccc2cc3c(N)c(C#N)sc3nc12	inconclusive [inhibitor, partial curve]	–
Nc1c(S(=O)(=O)c2cccc(Cl)c2)c2nc3ccccc3nc2n1/N=C/c1ccc(O)c(O)c1	active: 15.8 µM	–
CC(=O)N1CCC2(CC1)C(C#N)=C(N)Oc1c2sc2nc(C)cc(C)c12	inconclusive [inhibitor, single point]	–
COc1cccc(-c2cc(NCCc3c[nH]c4ccc(OC)cc34)ncn2)c1	inconclusive [inhibitor, single point]	–
CC(=O)c1ccc2c3c(ccc(O)c13)CC2	inconclusive [inhibitor, single point]	–
CCOC(=O)c1ccc(Nc2cc(C)nc(-c3ccccc3O)n2)cc1	inconclusive [inhibitor, single point]	–
CCOC(=O)c1ccc(NC(=O)c2c(O)c3ccccc3n(C)c2=O)cc1	inconclusive [inhibitor, partial curve]	–
CCN(CCCNc1ncnc2nc[nH]c12)c1cccc(C)c1	inconclusive [inhibitor, single point]	–
CCC(C)(C)n1nnnc1C(C(C)C)N1CCSCC1 (configuration not stated)	inactive	–
Cn1c(=O)[nH]c(=O)c2c1nc(NCCCn1ccnc1)n2Cc1cccc(Br)c1	inconclusive [inhibitor, single point]	–
COC(=O)c1ccc(O)c(Sc2cc(C(=O)OC)ccc2O)c1	active: 15.8 µM	–
CN1CCN(c2ncc3ncc(=O)n(-c4ccccc4)c3n2)CC1	inactive	–
Cc1cc2nn(-c3cccc4ccccc34)nc2cc1N	inconclusive [inhibitor, partial curve]	–
CCc1cc(C=NC2CCCCC2)c(O)s1	active: 12.6 µM	–
O=C1C2C3CCCC3=C3CCCC3C2C(=O)N1c1ccccc1 (configuration not stated)	active: 20 µM	–

SMILES	Potency	activity change, negative = inhibition
Oc1ccc(Cl)cc1-c1cc(-c2ccccc2)n[nH]1	inconclusive [inhibitor, full curve]	–
Cc1ccc(C)c(N2CCN(C(=O)CCS(=O)(=O)c3cccc4nonc34)CC2)c1	inactive	–
CCOC(=O)c1sc(=S)n2c1[nH]c(=O)c1ccc(C(=O)OC)cc12	active: 10 µM	–
CN(C)S(=O)(=O)c1ccc2c(c1)c(=O)c(C(=O)NCCCN1CCCCCC1)cn2C	inconclusive [inhibitor, partial curve]	–
O=S(=O)(Nc1cccc2ncccc12)c1cccs1	inactive	–
Cc1cc(C)c(C(=O)COC(=O)Cn2cnnn2)cc1C	inconclusive [inhibitor, full curve]	–
CCn1c(C(=O)NCCCc2ccccc2)cc2sccc21	active: 20 µM	–
Cc1oc(C)c2c(=O)ccc3c(c12)OC(N)=C(C#N)C3c1ccccc1 (configuration not stated)	inconclusive [inhibitor, single point]	–
CCCc1ccc(Oc2c(-c3ccc(O)c(C)c3O)n[nH]c2C)cc1	inconclusive [inhibitor, partial curve]	–
Cc1ccc(/C=c2\sc3nc(-c4ccco4)nn3c2=O)o1	inconclusive [inhibitor, partial curve]	–
O=C(O)[C@H](Cc1ccccc1)N1Cc2ccccc2C1=O	inconclusive [inhibitor, single point]	–
CC(C)(C)n1nc2c(c1NC(=O)c1ccc(Br)o1)CS(=O)C2 (configuration not stated)	inconclusive [inhibitor, full curve, poor fit]	–
CCN1c2ccccc2NC2N=C(OC)C(c3ccccc3)C21 (configuration not stated)	active: 25.1 µM	–
CCN(C(=O)c1ccnc(C(C)(C)C)c1)c1ccccc1	inactive	–
O=C(Nc1ccccc1)c1ccc2nc(-c3ccco3)c(-c3ccco3)nc2c1	active: 6.31 µM	–
COc1cccc(C(=O)CSc2nnc(CNS(=O)(=O)c3ccc(C)cc3)n2C)c1	inconclusive [inhibitor, single point]	–
Cn1cccc1Cc1nnc(SCC(=O)Nc2ccc3c(c2)OCO3)n1CCc1ccccc1	inconclusive [inhibitor, partial curve]	–
O=C1NC(Nc2nc3ccccc3s2)(C(F)(F)F)C(=O)N1C1CCCCC1 (configuration not stated)	inconclusive [inhibitor, partial curve]	–
CCC(=O)Nc1cc(-c2nn(C)c(=O)c3ccccc23)ccc1OC	inactive	–
Cc1ccc(C)o1	inactive	–
COc1ccccc1-c1nc(S(=O)(=O)c2ccc(Cl)cc2)c(N(C)C)o1	inactive	–
N[C@@]1(C(=O)O)CN[C@H](C(=O)O)C1	inconclusive [inhibitor, single point]	–
O=C(O)[C@H]1CCCC[C@@H]1c1c2ccc(=O)c(O)c-2oc2c(O)c(O)ccc12	inconclusive [inhibitor, partial curve]	–
Nc1ccc2nn(-c3cccc4ccccc34)nc2c1	inconclusive [inhibitor, full curve]	–

SMILES	Potency	activity change, negative = inhibition
COC(=O)CSc1nc2c(c(-c3ccco3)c1C#N)CCCC2	active: 10 µM	–
CCOC(=O)CCc1c(C)nc2cc(-c3ccccc3OC)[nH]n2c1=O	inactive	–
COc1ccccc1-c1cncnc1N(C)Cc1ccco1	inconclusive [inhibitor, single point]	–
Cn1c(=O)oc2cc(S(=O)(=O)N3CCCC(C(=O)NCC4COc5ccccc5O4)C3)ccc21 (configuration not stated)	inactive	–
COc1ccc(OC)c(S(=O)(=O)Nc2ccc(O)c(Sc3ncn[nH]3)c2)c1	active: 12.6 µM	–
CCC(C)[C@H](NC(=O)Nc1ccc2c(c1)OCCO2)C(=O)O (some centres not stated)	inconclusive [inhibitor, single point]	–
Clc1ccccc1-c1cc(NCCN2CCOCC2)ncn1	inconclusive [inhibitor, single point]	–
Brc1ccc(CSc2nnc(Cc3c[nH]c4ccccc34)o2)cc1	inconclusive [inhibitor, partial curve]	–
COc1ccc(CC(=O)Nc2oc(-c3ccccc3)c(-c3ccccc3)c2C#N)cc1OC	inconclusive [inhibitor, partial curve]	–
CC(=O)Nc1ccc(NC(C)=O)s1	active: 20 µM	–
CS(=O)(=O)Nc1cccc(-c2nccc(NCc3cccs3)n2)c1	inconclusive [inhibitor, single point]	–
CCOC(=O)N1CCN(C(=O)Nc2ccc3nc(-c4ccccn4)c(-c4ccccn4)nc3c2)CC1	inconclusive [inhibitor, single point]	–
C#CCCCCCCCCCCCc1ccco1	inconclusive [inhibitor, full curve]	–
Cc1nc2ccccc2c(=O)n1C1CCCCCC1	inconclusive [inhibitor, single point]	–
CC1(C)CC(n2c(NCCO)nc3c(c2=O)C2(CCCC2)Cc2ccccc2-3)CCO1 (configuration not stated)	inconclusive [inhibitor, single point]	–
O=C1NC(c2ccccc2)C(C(=O)c2cccs2)=C1O (configuration not stated)	inconclusive [inhibitor, partial curve]	–
COc1cc(C(=O)N2CCN(c3cccc(C)c3C)CC2)cc(OC)c1OC	inactive	–
O=C1CC(Nc2ccc(N3CCOCC3)cc2)C(=O)N1c1cccc(C(F)(F)F)c1 (configuration not stated)	inconclusive [inhibitor, single point]	–
Cn1c(C(=O)NCCCN2CCOCC2)cc2c(=O)n(C)c3ccccc3c21	inconclusive [inhibitor, full curve]	–
COc1ccc2[nH]cc(CCNc3ccnc(-c4ccoc4)n3)c2c1	inconclusive [inhibitor, partial curve]	–
CC(=O)OC[C@H]1O[C@@H](O/N=C2/[C@H]3O[C@@H]3[C@@H](O)[C@H]3[C@H]2CCn2c(=O)n(-c4ccccc4)c(=O)n23)[C@H](OC(C)=O)[C@@H](OC(C)=O)[C@@H]1OC(C)=O	–	inactive: 5.41% [at 11.4 µM]
Cc1ccccc1Nc1nc(CSc2nnc(-c3ccoc3C)n2C)cs1	active: 12.6 µM	–
c1ccc(-c2nc3ccccc3c3nncn23)cc1	inactive	–
CN(C)c1cccc(OC2C=CC(C#Cc3ccccc3)OC2CO)c1 (configuration not stated)	–	inactive: -0.858% [at 11.4 µM]
